# Measurements taken from the RNAGym collection of RNA variant scans (doi:10.7554/elife.90254).
# Read counts are not given, so values of variants with three or more changes are uncertain.
# B1: LINE1-full (parent)
# chain: UACGUAGGUGGUUUUCCCCUGAUAGUGCUAAGGGGGCCUGGAAGUUUGGACUGGGCAGAGCUCAACACAGCGUGGCAAAGUGGCUGUGGCUAGACUGCCUCUCUGGAUUCCUCGUCACUCAGCAGGGCAUCUCUGAGAGAAAUGCC
# Variants of: B1
# Experiment: self-cleavage, relative activity (ratio to wild type); higher = more cleavage; in vitro, sequencing; the parent is a self-cleaving ribozyme
row,Variant,self-cleavage
1,A43G C66U U100C A136G,0.05
2,U39C A64G U104G,0
3,U15A A30U C37A U108A,1.97
4,U29A A42G U73A U85C,0.2
5,A22C U39A C63U A77G A94G G106A,0.11
6,U1A C19U U85C A117G U130C,0
7,U9A U73C A78G U109C,0
8,U9A A65G U100C,0.15
9,C17A A69U A78G U96C,0
10,U73A G106C A142G,1.43
11,U73A U96C A117U,0.07
12,U1A U14C U87C U134C,0.42
13,A30U A42G A94G C95A,0
14,U15C A117U A142G,2.15
15,G54A U62C A77U,0.02
16,G88A A117G A141U,0.07
17,G25A A57U A117G U143A,0.14
18,U73A A121G U134A,1.91
19,U39C U91C A124G,0
20,U47C A59G C84U U143A,0.09
21,U20C A64G A140G,0.15
22,A59U U119C U132A A138G,0.44
23,A43U U47C A65U A140C,0
24,A31C A65U U85C,0

row,Variant,self-cleavage
1,U14C U130C A138G,1.25
2,U20A A64G A65G,0
3,U12C A57C G83A A117U A142G,0.19
4,U5C C37U A59G A78G U91A,0.11
5,U26C G32U U100C U112C C118U C133U G137A,2
6,U1C U100A U104C,1.1
7,G54U U62C A78G G105A A124G,0.02
8,G48A A69U U104A U112C A138G,0
9,G10A U45C U87A U100C,0.14
10,U5C A6U U119C U132A G137A,2.04
11,U12C U15C U47C A136G,0.82
12,U14C C71U A117G,0.92
13,U20C A121G A138G,1.16
14,G72A A78U A117U U143C,2.25
15,A2G A57U U115C,0.67
16,U13C U15C U73C A121U U143C,0.96
17,U26C A65G A92U,0.2
18,U12A A94U U115C U130C,0.27
19,U12C A65U U104A,0.24
20,A31C U85C A140G,0.25
21,U23A C38U U73C A124U,1.98
22,A43G G86A U87C,0.05
23,A77U A79G A107G,1.44
24,U29C A64U U112C U115C,0.43

row,Variant,self-cleavage
1,U81G A129G A142G,2.19
2,U15C U20C U85C C101A A136G A140U,0.17
3,G54C G86A U96C,0.05
4,A50G U81A U100A,0.78
5,U5C A59G U85A A94G A121G,0
6,A6G U12C U87C A141G,0.3
7,A2G C37G A65U U108C A117U U134A,0.47
8,A78G A124U A129G,1.32
9,G7U A43G U115C,0.84
10,G60U G97U U115C A129U,0.01
11,U62A A67U U81A U85C U104C,0.21
12,U45C A78U U91A A138G,0.72
13,G53U A64G U104C A141G,0.22
14,A6G G33C U87C U100A,0.18
15,G40A U52A A67G,0.45
16,U20C A65G A107U U109C,0.14
17,U96C A121U A129G,0.07
18,G36C U85C U102C,0
19,U23C A65G A69U,0.05
20,A2G U14C G54A A59G,0.43
21,U15G A67U U112A U132C,0.27
22,U1C U85C U87A A136G,0.08
23,U12C G32C U62C,0.26
24,U13C U15A U29C A57G,0.17

row,Variant,self-cleavage
1,U20C U23C C28G U104A,1.1
2,A6U A24U A59G A79G A117C,0.97
3,G53A U62C U108C,0.05
4,U45A G106A A138G,1.24
5,U81C G114A A129U,1.29
6,U13C A67G G89A,0.07
7,U39C A69C U81A,0.04
8,U91C U112C C123U,0.34
9,U20C U39A U115C A117G,0.77
10,G55U G70U G97A U132C,0.03
11,A57U A65G A121U,0
12,U9G G49A U87C A107G U132C,0.25
13,A6U U12C A57G,0.98
14,U62C A64U U96G C120U,0.07
15,U115C U132C A142G,0.63
16,C28A U46C U143C,1.19
17,U1A A67G C131A,0.64
18,U13A U14A G88A,0.05
19,C71U A94G C131U,0.11
20,A50G C56A A107U,0.06
21,A42G U47A C56U G58U U81C U96A,0.03
22,U9C A57C C110U,0.13
23,U39A U85A A117U A141G,0.07
24,C17U A64G U119A A136G,0.29

row,Variant,self-cleavage
1,G40A A59G U91A,0.07
2,U46C U104C A138G,2.04
3,U46G A64C A124U,0.07
4,U26C G53A G105A,1.34
5,G36U U52A C128A,0.54
6,G34A A50G G58U A129G,0.06
7,G53A U73A A124G,1.58
8,A22U G54A A69U,0.05
9,C16U A67G A78G U102A,0.12
10,A77U C90U A124G U134A,0.03
11,U29C U102C G106A,1.32
12,U12C C76U A77G A78G U109C,2.15
13,C19U C37A A124G,0.65
14,U9C U23A G75A A136G U143C,1.19
15,U15C G36A U62C C103A,0.03
16,A22G G70A A92G,0.14
17,U9C U39A U47A C61A G74A A124G,0.03
18,G54A U85C U112A,0.09
19,G7A U81C C146U,0.74
20,U13C U20C U73C U81A,1.5
21,U9C G32A U73C,1.14
22,C51A A65G U104C U115A G135U U143C,0.05
23,U1C A22G A79G A117U A129G A136G,0.53
24,A78G A92G A94G,0

row,Variant,self-cleavage
1,A30G U91C U115C A142G,0
2,A30U U52C G89A A141G,0.06
3,U14C G70A A117C,0.36
4,U46C U52C U102A,1.08
5,G40A U96C A117G C145A,0
6,U1C A79G C123U,0.62
7,A22G A59G U143C,0.29
8,C63U G74U A141G,0.38
9,U14C U29A A140G,0.8
10,U9C U15A G25C U62A,0.04
11,U9C U47C A79U A141G,1.54
12,U45G A50U A69G U81A U100C,0.61
13,A22C A64U G89A,0
14,G44A U62A U91C A138G,0.02
15,U15C A57G A78G U104C,0.37
16,U1C U9C U39A G55C C61A U62A A92U U132A A138U,0.11
17,U9C U13C U81C U143A,2.9
18,A42U U45A A64U A94U A142G,0.19
19,U23A C71A U115C U119G,0.53
20,G36A U52A A59G A67U A117U,0.04
21,A22G U96C U108C A121C,0
22,U15C U73A A78G,0.48
23,U20C A22G U109C A142G,0.84
24,U96C C101A A140G,0.08

row,Variant,self-cleavage
1,U12G U134C A142G,0
2,U14C C18A U46C U112C,1.13
3,G7U U20C A77G C95U,0.52
4,C17U U47A A129G U132C,1.51
5,A57G U87C U115C G126A,0
6,U1C U47A U52A A129G A142G,0.54
7,A6G C95U A140G,0.27
8,U26C C38U A50U A121G,1.88
9,U13C U14A U62C A117G,0
10,U52A A64G U112A A136G U143C,0.28
11,U112C U132G A136U,2.91
12,C56U U104A A136G,0.15
13,U13A G70A C99U U108C A140G,0.05
14,U29A A79G U81A,1.15
15,G21A U109A A140G,0.89
16,A6U U45C A50U U132G A136U,1.15
17,G41U C99U A121U A136G,0.51
18,U13C U87C U96A U115C,0.26
19,U47A G48A U62C C98A A138G,0.02
20,U9A U45C U109G,0
21,U12C U91C A140U,1.03
22,U73A A107G U130C A140U A141G,1.23
23,G70A U96C A136U,0.03
